# Measured values from PubChem BioAssay AID1745853 (National Center for Advancing Translational Sciences (NCATS), 2022).
# The list shows a part of the results. Further columns of the screen follow, without active or inactive calls.
# Tests used:
# Test in all cases: Primary Screen for Target Class Profiling of Small Molecule Inhibitors of Methyltransferases
# [1] = biological target: Glycine N-methyltransferase (Homo sapiens) (UniProt Q14749); conditions: purified enzyme, MTase-Glo SAH luminescence; measured here: GNMT inhibition; at 40 µM; stronger effect = lower value
# How it was run: (§1)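 Each enzyme was reacted with SAM and its substrate, with compounds tested once at 40 uM; SAH formed was read by MTase-Glo luminescence.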
# [2] = biological target: Guanidinoacetate N-methyltransferase (Homo sapiens) (UniProt Q14353); conditions: purified enzyme, MTase-Glo SAH luminescence; measured here: GAMT inhibition; at 40 µM; stronger effect = lower value
# How it was run: as §1
# [3] = biological target: Histamine N-methyltransferase (Homo sapiens) (UniProt P50135); conditions: purified enzyme, MTase-Glo SAH luminescence; measured here: HNMT inhibition; at 40 µM; stronger effect = lower value
# How it was run: as §1
# [4] = biological target: Nicotinamide N-methyltransferase (Homo sapiens) (UniProt P40261); conditions: purified enzyme, MTase-Glo SAH luminescence; measured here: NNMT inhibition; at 40 µM; stronger effect = lower value
# How it was run: as §1
# [5] = biological target: Phenylethanolamine N-methyltransferase (Homo sapiens) (UniProt P11086); conditions: purified enzyme, MTase-Glo SAH luminescence; measured here: PNMT inhibition; at 40 µM; stronger effect = lower value
# How it was run: as §1
# % is set by controls: 0 for no effect and ±100 for the full control effect.
SMILES,"activity change, negative = inhibition [1] [%]","activity change, negative = inhibition [2] [%]","activity change, negative = inhibition [3] [%]","activity change, negative = inhibition [4] [%]","activity change, negative = inhibition [5] [%]"
CCOc1ccc(CN2C(=O)c3cc4occc4n3CC2(C)C(=O)NC2CCCCC2C)cc1 (stereo not drawn),5.61,1.99,6.18,5.71,0.668
CCC[C@@H]1C[C@@H](C(=O)N[C@@H]([C@H]2O[C@H](SC)[C@H](O)[C@@H](O)[C@H]2O)[C@@H](C)O)N(C)C1,,9.39,,-4.56,4.12
CC1(C(=O)NC2CCCCCC2)Cn2nc(C3CC3)cc2C(=O)N1Cc1ccc2c(c1)OCO2 (stereo not drawn),0.362,0.911,4.96,-9.96,0.473
Cc1cccc(CSc2nnc3n(C)c(=O)c4ccc(C(=O)NC5CCCCC5)cc4n23)c1,-0.654,4.38,5.32,4.88,3.7
Cc1ccc(C)c(N2CCN(C(=O)CN(C)S(=O)(=O)c3ccc4[nH]c5c(c4c3)CCCC5)CC2)c1,3.77,0,4,4.14,3.54
N#Cc1c(Oc2ccc(F)c(NC(=O)Cc3cccc(C(F)(F)F)c3)c2)ccc2nc(NC(=O)C3CC3)sc12,1.24,-22.5,4.73,-29.5,-13.5
CCC(C(=O)NCc1ccc(OC)cc1)n1ccc2cc(S(=O)(=O)N3CCCCC3)ccc21 (stereo not drawn),2.33,3.93,3.56,0.197,0.589
CCCN1C(=O)c2c(C(=O)NCc3ccc(C)cc3)ncn2CC1(C)C(=O)NC1CCCC1 (stereo not drawn),3.47,0,1.29,3.44,6.98
CCOc1ccc(CN2C(=O)c3ccc(-c4ccccc4)n3CC2(C)C(=O)NC2CCCC2)cc1 (stereo not drawn),-4.95,2.19,-1.74,-1.62,-0.45
Cc1cccc(NC(=O)Cn2c(=O)oc3cc(S(=O)(=O)NCc4ccccc4)ccc32)c1,-6.23,1.13,3.99,5.57,-5.72
CO[C@H]1C[C@@H]2CC[C@@H](C)[C@@](O)(O2)C(=O)C(=O)N2CCCC[C@H]2C(=O)O[C@H]([C@H](C)C[C@@H]2CC[C@@H](OC(=O)C(C)(CO)CO)[C@H](OC)C2)CC(=O)[C@H](C)/C=C(\C)[C@@H](O)[C@@H](OC)C(=O)[C@H](C)C[C@H](C)/C=C/C=C/C=C/1C,1.55,17.8,4.56,0.736,5.4
CCN(CC)CCCNC(=O)CCc1nnc2n(Cc3ccccc3)c(=O)c3ccccc3n12,-4.2,0,-36.4,8.95,2.35
CC(C)CNC(=O)c1ccc2c(=O)n(CC(C)C)c3nn(CC(=O)Nc4ccccc4)c(=O)n3c2c1,9.77,2.36,11.7,7.39,8.24
Cc1ccn(CC(=O)N2CCCn3ccnc3C2c2cnn(C)c2)n1 (stereo not drawn),-1.48,-13.3,-0.47,-9.75,-1.79
O=C(Cn1ccc2cc(S(=O)(=O)N3CCCCC3)ccc21)NCCC1=CCCCC1,0.757,0,-1.7,-5.26,-4.63
O=S(=O)(Nc1ccc(Cl)c(C(F)(F)F)c1)c1ccc2[nH]c3c(c2c1)CCCC3,-17,-3.15,-5.9,-16.4,-2.12
CC(C)c1ccc(-c2cc3n(n2)CC(C)(C(=O)NC2CCCCC2)N(Cc2ccco2)C3=O)cc1 (stereo not drawn),-7.33,4.46,-1.06,2.8,-1.68
Cc1ccc(C2c3cccn3-c3sc4c(c3CN2C(=O)NC(C)C)CCCC4)cc1 (stereo not drawn),-4.62,0,9.95,7.91,4.74
O[C@H]1[C@H](NCc2cnc3ccccc3c2)[C@H]2CO[C@H](O2)[C@@H]1N1CCCCC1,-2.62,-6.84,-4.11,-10.4,-0.96
